Some of the results follow.

The target of this assay is T1, OsWOX13 (Oryza sativa, UniProt Q5QMM3 1-267).
T1 sequence: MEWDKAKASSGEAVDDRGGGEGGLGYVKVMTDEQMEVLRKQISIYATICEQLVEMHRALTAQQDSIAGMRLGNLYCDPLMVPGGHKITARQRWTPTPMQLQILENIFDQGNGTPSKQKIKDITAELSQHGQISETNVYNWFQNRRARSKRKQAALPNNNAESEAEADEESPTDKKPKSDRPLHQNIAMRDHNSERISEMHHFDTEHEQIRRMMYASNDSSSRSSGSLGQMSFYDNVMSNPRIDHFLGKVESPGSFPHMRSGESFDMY
As to the kind of experiment: protein-binding microarray (RPBM); PBS, 2% BSA, 51.3 ng/ul salmon testes DNA, 50 uM zinc acetate, 200 nM TF, 25 C, 1 h; high values mean tight binding. Conditions: protein: recombinant; tags: N-terminal polyhistidine and DsRed monomer fusion (pET32a); label: CyDye5-dUTP incorporated in the synthesized complementary strand; 3' TTTTT single-stranded linker to array surface; dsDNA, one strand shown. The essentials: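 Transcription factors, each fused N-terminally to a polyhistidine tag and DsRed, were expressed in E. coli BL21-CodonPlus and purified on Ni–NTA. A custom Agilent array was made double-stranded by primer extension with Cy5-dUTP and blocked with 2% BSA. It was incubated with 200 nM protein in PBS, 2% BSA, salmon testes DNA and 50 µM zinc acetate at 25 °C for 1 h, then washed. The binding signal is per-feature fluorescence intensity (arbitrary units) read on an Axon 4000B scanner.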
Turning to “ATATATATATATATATATATATATATATATGTGTGTGTGTCGGAGTCACCTAGTGCAG”, the binding signal is 15700 fluorescence intensity (a.u.). The same measure for “ATAGATTTTGACATTTTACATCAATAGTTTGGTCACTTGTCGGAGTCACCTAGTGCAG”: 12100 fluorescence intensity (a.u.); for “GCGGCGATCGATCAATCAGAAACCGGCCGGGTATATATAGCGGAGTCACCTAGTGCAG”: 4020 fluorescence intensity (a.u.). As to “AGATAATTGACAAGGTACAATTTATGGCATTTTCCTTTTCCGGAGTCACCTAGTGCAG”, the binding signal was 26200 fluorescence intensity (a.u.). With “AACCGGATAGACAGGTTTCACCACGGAAAATTAAACCTAGCGGAGTCACCTAGTGCAG” the figure was 8800 fluorescence intensity (a.u.); with “GGGGACATGATTACAAGATAGAAACCTTAACCAATATGGTCGGAGTCACCTAGTGCAG”, 16700 fluorescence intensity (a.u.). With “ATGTTTTGAGCACCAATCACACACCAATAACGCCAACGTACGGAGTCACCTAGTGCAG” the figure was 19500 fluorescence intensity (a.u.). The same measure for “TTAATTTGTTATCCATCTTGGTCTTGGGCTTTTGGTGTCACGGAGTCACCTAGTGCAG”: 7330 fluorescence intensity (a.u.); for “CCTCGTCTGACAGGTAGTCCCATCACGTGGGCCCCACCTCCGGAGTCACCTAGTGCAG”: 3570 fluorescence intensity (a.u.); for “CTCCATGACAGGTTACTGATTAACTAAGCAAGGGTGTCTCCGGAGTCACCTAGTGCAG”: 28700 fluorescence intensity (a.u.). For the sequence “TCAAATTAGCCACGTATGCGCCACATCAACCAATACCGCCCGGAGTCACCTAGTGCAG”, the binding signal is 3340 fluorescence intensity (a.u.). With “ATGTTGAGTCTCCTATTGATTGGAATCAGACTTGAGAAGGCGGAGTCACCTAGTGCAG” the figure was 29800 fluorescence intensity (a.u.). With “GTTTATTTATAATTATATTATATTAATATTGTTTGAAAATCGGAGTCACCTAGTGCAG” the figure was 8200 fluorescence intensity (a.u.). The same measure for “TACCGTCTTAAATTTGACTTGATCTAATCCATGGCCAGATCGGAGTCACCTAGTGCAG”: 3440 fluorescence intensity (a.u.); for “CAAGATTTTAATAAATGCATAATTTTATGAATCGCATAGACGGAGTCACCTAGTGCAG”: 7290 fluorescence intensity (a.u.). As to “CCCCTTTGTGATTTGATGAGGCGCTGTGATATCGGGGTGGCGGAGTCACCTAGTGCAG”, the binding signal is 22300 fluorescence intensity (a.u.).

With “ACAAATTAGTATTTACATAAAGAAATTCCTGCGTCTGCGTCGGAGTCACCTAGTGCAG”, the binding signal is 29000 fluorescence intensity (a.u.).

With “ATATATATATATATATATTTGTACTATGTATGGAATTTTCCGGAGTCACCTAGTGCAG”, the binding signal is 3390 fluorescence intensity (a.u.). As to “GCTAATTCATACAATAATTGTTTACTATACTATTAATATACGGAGTCACCTAGTGCAG”, the binding signal is 13400 fluorescence intensity (a.u.). With “GGTAATTAAATATGCTGGATGTGTAGTTCGGTTCAAGTAGCGGAGTCACCTAGTGCAG” the figure was 24700 fluorescence intensity (a.u.); with “AGCTCTCTGCCAATCAAGCTACACACCTTGTTCCCCTACTCGGAGTCACCTAGTGCAG”, 7180 fluorescence intensity (a.u.); with “GGTTGGATGGTTGGATTTGATGTGGATTTGAATTGTTATGCGGAGTCACCTAGTGCAG”, 7890 fluorescence intensity (a.u.). The same measure for “CTTCTTATATTATTTTAATTAGAAGTTTTACTGTTAATGTCGGAGTCACCTAGTGCAG”: 3320 fluorescence intensity (a.u.); for “AAAACAGTAAATCAATGTTATATTATAAAGTACTATAATACGGAGTCACCTAGTGCAG”: 3150 fluorescence intensity (a.u.); for “GACAGTGACATGCTCTAATTATATTTGAAGCTGGACCTCACGGAGTCACCTAGTGCAG”: 8100 fluorescence intensity (a.u.). Turning to “ACAGTAATTATTTTCATCTTAGACTACTTAATATAAGTTTCGGAGTCACCTAGTGCAG”, the binding signal was 13000 fluorescence intensity (a.u.).

For the sequence “TCTAATTACTTCATGATTTGATAATTTGGTGTTACAGTAACGGAGTCACCTAGTGCAG”, the binding signal is 52400 fluorescence intensity (a.u.). As for “CCGGACTAAATTAAGACAAACTGAGACTGAAAAGAACTCACGGAGTCACCTAGTGCAG”, the binding signal was 7570 fluorescence intensity (a.u.). With “ATAATGGAACAGAGAATTATTTACTTTACAAATTTCTCGTCGGAGTCACCTAGTGCAG” the figure was 4830 fluorescence intensity (a.u.); with “TTGGTGACAGATTCCATCTGCCAACATACATATATATTGGCGGAGTCACCTAGTGCAG”, 8100 fluorescence intensity (a.u.); with “TTGCATTTAATTAATCAAATGAAACGAGAACATTGTGTTTCGGAGTCACCTAGTGCAG”, 30500 fluorescence intensity (a.u.). The same measure for “ATACATGACGGCAATTGAATGACACTTGTTGAATTTTCAGCGGAGTCACCTAGTGCAG”: 5650 fluorescence intensity (a.u.); for “GTATACAAATTTATAATCAATGTTGGGTGGAAAATAAATTCGGAGTCACCTAGTGCAG”: 15600 fluorescence intensity (a.u.). With “TAACTTTCTCTGTCAATCTAGCTTAACAATTGTCAGAAAACGGAGTCACCTAGTGCAG” the figure was 9960 fluorescence intensity (a.u.); with “GCAATAGATTGGATAAATAAATGTAATCCAGATAAAATATCGGAGTCACCTAGTGCAG”, 27100 fluorescence intensity (a.u.); with “TATCAATCTGATCCGATTTGCTACTGTAAGAGAAGACTTGCGGAGTCACCTAGTGCAG”, 3330 fluorescence intensity (a.u.). Turning to “CAAGTTCTTGTCAAAATAGACAGAATTATGGGATTTGAGCCGGAGTCACCTAGTGCAG”, the binding signal was 9060 fluorescence intensity (a.u.). The same measure for “CCTTAATTTAGTCTAAGGTTCTGGATTTTAATAGAGTATACGGAGTCACCTAGTGCAG”: 6920 fluorescence intensity (a.u.).

With “TCTTTGATAGACAGAGCTCTTCCTTTGATTCAGCTCAAGGCGGAGTCACCTAGTGCAG”, the binding signal was 39000 fluorescence intensity (a.u.). With “ATTATAATTGAGTACATTCTAGTATAATAATAATGAAATTCGGAGTCACCTAGTGCAG” the figure was 15200 fluorescence intensity (a.u.). With “CTAATTGAACGGTCAATTCTTACCCATTCATGGTTCGATTCGGAGTCACCTAGTGCAG” the figure was 24100 fluorescence intensity (a.u.); with “CTAAAATATAATTATGCAAACCTACCTTGGCAATTGAATTCGGAGTCACCTAGTGCAG”, 4390 fluorescence intensity (a.u.).

The values are drawn from article PMC7819943, “Rice protein-binding microarrays: a tool to detect cis-acting elements near promoter regions in rice”.
